Measurements published in paper PMC4336329 (PLoS ONE, 2015).
About 2,200 (0.71%) of roughly 310,000 compounds showed an effect of 50% or more. The effect is printed as a negative number. Some of the results follow.

What follows are compounds tested against human ether-à-go-go-related gene (hERG) potassium channel (human, UniProt Q12809) (assay: primary screen, population patch clamp on CHO cells stably expressing hERG).
Chain of human ether-à-go-go-related gene (hERG) potassium channel (Q12809 whole entry, looked up): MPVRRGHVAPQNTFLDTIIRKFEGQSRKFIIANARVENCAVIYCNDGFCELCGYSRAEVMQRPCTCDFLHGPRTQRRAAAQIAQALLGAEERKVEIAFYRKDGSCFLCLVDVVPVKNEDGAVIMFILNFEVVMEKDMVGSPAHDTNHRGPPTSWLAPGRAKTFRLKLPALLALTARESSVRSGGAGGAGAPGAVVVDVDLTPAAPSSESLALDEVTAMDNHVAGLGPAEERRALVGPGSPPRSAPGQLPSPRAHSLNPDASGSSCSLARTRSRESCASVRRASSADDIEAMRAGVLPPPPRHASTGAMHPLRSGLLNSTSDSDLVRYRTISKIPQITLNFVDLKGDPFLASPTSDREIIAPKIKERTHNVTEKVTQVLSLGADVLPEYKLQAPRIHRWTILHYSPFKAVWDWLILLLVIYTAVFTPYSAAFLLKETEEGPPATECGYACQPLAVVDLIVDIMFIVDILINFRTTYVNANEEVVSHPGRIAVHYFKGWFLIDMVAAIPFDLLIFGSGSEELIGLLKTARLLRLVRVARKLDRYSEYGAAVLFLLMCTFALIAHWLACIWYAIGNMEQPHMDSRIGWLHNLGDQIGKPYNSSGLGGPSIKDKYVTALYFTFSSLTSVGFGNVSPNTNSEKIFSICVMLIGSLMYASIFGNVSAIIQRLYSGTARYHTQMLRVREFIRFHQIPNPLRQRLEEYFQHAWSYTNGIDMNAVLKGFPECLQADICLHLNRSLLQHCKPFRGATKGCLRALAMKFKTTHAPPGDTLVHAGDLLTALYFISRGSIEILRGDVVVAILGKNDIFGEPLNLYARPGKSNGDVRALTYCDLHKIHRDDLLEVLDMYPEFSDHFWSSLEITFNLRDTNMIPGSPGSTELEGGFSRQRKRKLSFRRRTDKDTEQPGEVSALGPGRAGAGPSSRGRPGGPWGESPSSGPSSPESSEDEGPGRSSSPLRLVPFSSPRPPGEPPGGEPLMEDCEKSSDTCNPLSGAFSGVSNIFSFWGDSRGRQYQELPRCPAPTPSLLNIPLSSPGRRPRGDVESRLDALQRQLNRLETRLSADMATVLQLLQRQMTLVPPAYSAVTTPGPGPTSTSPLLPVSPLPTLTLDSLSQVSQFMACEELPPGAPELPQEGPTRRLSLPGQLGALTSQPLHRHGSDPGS

Structure (SMILES)	hERG current change (%, negative = inhibition) at 1uM
Cc1cc(C)c(S(=O)(=O)N2CCN(c3ccccc3)CC2)c(C)c1	15.7%
Cc1cc([N+](=O)[O-])ccc1NC(=O)/C=C/c1cccs1	-4.91%
Cc1cc(C)n2nc(SCC(=O)N(C)c3ccccc3)nc2n1	12.3%
CN1C2C=C(N(CCc3ccccc3)C(=O)c3ccc(Cl)cc3)CC1CC2.Cl (centres unmarked)	-19.7%
O=C(c1ccco1)N1CCN(S(=O)(=O)c2cccs2)CC1	-13.6%
CCOc1ccc(NC(=O)CN(C)C(=O)Cn2c(=O)cnc3ccccc32)cc1OCC	21.7%
COc1ccc(-n2nc(C(=O)NCC(=O)NC3CCCC(C)C3C)c3ccccc3c2=O)c(OC)c1 (centres unmarked)	12.5%
CCOC(=O)CSc1nc2ccccc2c(=O)n1CC(C)C	8.2%
Cc1ccnc(NC(=O)c2ccc(S(=O)(=O)N3CCCCCC3)cc2)c1	9.01%
COc1cccc(/C=N/NC(=O)C(=O)N2CCCCCC2)c1OC	10.3%
O=C(Nc1cccc(C(F)(F)F)c1)c1cc(-c2cccs2)on1	12.7%
CCc1nc2ccccc2c(=O)n1NCCc1ccccc1	4.18%
CN(C)S(=O)(=O)c1ccccc1C#N	-3.86%
CCc1[nH]nc2c1C(c1cccnc1)C(C#N)=C(N)O2 (centres unmarked)	4.11%
CCCCN(C(=O)c1ccc(N2CCCC2=O)cc1)c1c(N)n(CCC)c(=O)[nH]c1=O	12.2%
CN(Cc1cccs1)C(=O)CCNS(=O)(=O)c1ccc(Br)cc1	-4.09%
COc1ccc(NC(=O)CCCn2cnc3ccccc3c2=O)cc1	13.7%
Cc1ccc(C(=O)O)cc1N1C(=O)c2cccc3cc(Br)cc(c23)C1=O	4.88%
Cc1ccc(N=C(N)N=C(N)N)c(C)c1	11.2%
Cc1cccc2sc(N(CCCN(C)C)C(=O)c3nc4ccccc4s3)nc12.Cl	3.73%
COc1ccc(/C=N/NC(=O)c2ccc(COc3cccc4cccnc34)cc2)cc1O	9.45%
COc1ccc(C(=O)N/C(=C/c2ccco2)C(=O)NC2CCS(=O)(=O)C2)cc1 (centres unmarked)	16.6%
COC(=O)/C(=C1/Oc2ccc(C)cc2S1)C(F)(F)F	15.5%

Structure (SMILES)	hERG current change (%, negative = inhibition) at 1uM
O=C(NCCO)c1cccc2c1-c1ccccc1C2=O	7.64%
CC(=O)Nc1ccc(S(=O)(=O)N2CCC(N3CCCCCC3)CC2)cc1.O=C(O)C(=O)O	10.4%
O=C(Cn1cc(C(=O)c2ccco2)c2ccccc21)Nc1ccccc1F	3.79%
CCCCNCC(O)(c1ccc(Cl)cc1)c1ccc(Cl)cc1	-5.39%
Cc1nnc(N(C)C(=O)c2ccc3c(c2)OCO3)s1	15.4%
O=C(Cc1cccs1)Nc1nc(-c2ccc(F)c(F)c2)cs1	20.8%
COc1cc(C2N3CC4(C)CN2CC(C)(C3)C4)ccc1O (centres unmarked)	2.15%
CC(=O)Nc1ccc(S(=O)(=O)Nc2nc3ccc(C)cc3s2)cc1	8.08%
CCc1nc2nc(C)c(NS(=O)(=O)c3ccc4c(c3)CCCC4)c(=O)n2[nH]1	13.1%
Cc1ccc2nc(-c3ccccn3)cc(C(=O)NCCc3ccc(F)cc3)c2c1	4.59%
Cc1nc2c(C)cccn2c(=O)c1NC(=O)c1ccc2c(c1)OCO2	11.6%
Cc1ccc(S(=O)(=O)N(C)C)cc1NC(=O)CSc1ccc2c(c1)OCCO2	6.68%
COCCNC(=O)c1ccc(-n2c(SCc3cccnc3)nc3ccccc3c2=O)cc1	-2.41%
O=C(Nc1cccc(F)c1)NC1(C(=O)N2CCN3CCCC3C2)CCCCC1 (centres unmarked)	9.03%
CCOc1ccc(OCCC(=O)N2CCN(S(=O)(=O)c3ccc(F)cc3)CC2)cc1	-3.33%
O=C(C[n+]1cccc(NC(=O)c2ccccc2)c1)c1ccc(NC(=O)c2ccccc2)cc1.[Br-]	4.65%
CCCC(NC(=O)c1c(C)noc1C)C12CC3CC(CC(C3)C1)C2 (centres unmarked)	-0.331%
COc1ccc(/C=C2\CN(Cc3ccccc3)C/C(=C\c3ccc(OC)cc3OC)C2=O)c(OC)c1	18.2%
Nc1cc(N)nc(SCc2cc([N+](=O)[O-])cc3c2OCOC3)n1	-3.37%
CC(=O)c1cccc(NC(=O)NC2CC3CCCC(C2)N3CC(C)C)c1 (centres unmarked)	-1.26%
CC(=O)Nc1ccc(S(=O)(=O)N2CCN(C(=O)CCC3CCCC3)CC2)cc1	9.49%
CCCCCC(=O)NC(=S)NNC(=O)c1ccc([N+](=O)[O-])cc1	19.4%
O=C(Nc1nnc(SCc2ccc(Cl)cc2)s1)C1CCCO1 (centres unmarked)	7.43%

Structure (SMILES)	hERG current change (%, negative = inhibition) at 1uM
C(=N\n1cnnc1)/c1ccc(OCc2cccc3ccccc23)cc1	-0.106%
CCOC(=O)c1c(C)oc2cc(Br)c(OC(C)C(=O)OCC)cc12 (centres unmarked)	-1.76%
COc1cc(C(=O)Nc2ccc(C)cn2)c([N+](=O)[O-])cc1OC	10.2%
C=C(C)CN=C1NN=C(c2cc(C)n(-c3ccc(C)cc3)c2C)CS1	9.93%
O=C(N/N=C/c1ccccc1O)c1ccncc1	11%
CN(C(=O)CSc1nnc(-c2ccncc2)n1Cc1ccccc1)C1CCS(=O)(=O)C1 (centres unmarked)	9.18%
Cc1ccc(N(CC#N)C(=O)CS(=O)(=O)c2cccc([N+](=O)[O-])c2)cc1	4.93%
C/C(=C/C(=O)Nc1cccc(F)c1)N1CCCC1	18.3%
Cc1cccc(CS(=O)(=O)c2ncc(CO)n2C)c1	10.5%
O=C(CSc1ccccn1)Nc1ccc2c(c1)C(=O)c1ccccc1C2=O	14.2%
Cc1noc(C)c1C(=O)Nc1sc2c(c1C(N)=O)CCC2	3.09%
CC(C)(C)c1nn(-c2ccccc2)c2[nH]c(=O)c(CNc3ccc4c(c3)OCCO4)cc12	11%
COc1ccc(-c2coc3cc(O)ccc3c2=O)cc1O	5.96%
Cc1ccc(NC(=O)CCC(=O)NNS(=O)(=O)c2ccccc2)cc1C	-7.84%
CCNC(=S)NNc1nnc(-c2ccccc2)c(-c2ccccc2)n1	10.4%
Cn1c(SCc2ccc(C#N)cc2Cl)nc2ccccc21	-0.0907%
O=C(COC(=O)c1ccc([N+](=O)[O-])cc1Cl)Nc1cccnc1Cl	14.5%
CCCCCN1C(=O)/C(=C/c2c(N3CCc4ccccc4C3)nc3ccccn3c2=O)SC1=S	11.4%
CC(=O)c1ccc(NC(=O)COc2ccccc2C(=O)Nc2ccc(C)cn2)cc1	11.8%
CS(=O)(=O)N1CCN(c2c(Cl)cccc2[N+](=O)[O-])CC1	1.46%
Nc1ccc2oc(-c3ccccc3Cl)nc2c1	-2.3%
COc1ccc(NC(=S)Nc2cc(C)cc(C)n2)cc1OC	9.28%
CCOC(=O)N1CCN(C(=O)C2CCN(S(=O)(=O)c3ccc(Br)s3)CC2)CC1	-8.34%

Structure (SMILES)	hERG current change (%, negative = inhibition) at 1uM
Cc1ccc(N2CC(NS(=O)(=O)c3cccnc3)CC2=O)cc1C (centres unmarked)	21.3%
Cc1cccn2c(=O)c3cc(C(=O)NCCCN4CCCC4=O)n(C)c3nc12	10.4%
O=C1OC(Nc2ncccn2)c2ccccc21 (centres unmarked)	14.8%
CN1CCSc2ccc(C(=O)Nc3cc(F)ccc3F)cc21	18.8%
CN(CC(=O)Nc1ccc(F)cc1)C(=O)C1CC(=O)N(Cc2ccccc2)C1 (centres unmarked)	3.76%
CSc1ccc(S(=O)(=O)N2CCC(C(=O)NCCc3ccccc3)CC2)cc1	14.1%
Cc1nnc(NC(=O)CSc2ccc3nnc(-c4cccnc4)n3n2)s1	4.43%
CC(C)c1ccc(NC(=O)C2C3C=CC(CC3)C2C(=O)O)cc1 (centres unmarked)	-12.2%
COc1ccc(NC2CCCN(C(=O)c3ccncc3)C2)cc1 (centres unmarked)	22.5%
O=c1[nH]cc(N=Cc2cc([N+](=O)[O-])ccc2O)c(=O)[nH]1	15.8%
CCc1c(C)nc(N)n2c(SCC(=O)NC3CCCCC3)nnc12	2.11%
CC(C)(C)SCCNC(=O)c1ccccc1	0.759%
CCc1ccc(NC(=O)C(C)OC(=O)CCC(=O)c2cccs2)cc1 (centres unmarked)	-3%
Nc1nc(SCC(=O)N2CCOCC2)[nH]c(=O)c1-c1ccccc1	16.1%
CCn1cc(CN2CCc3c([nH]c4ccccc34)C2c2cccc(O)c2)c(C)n1 (centres unmarked)	6.25%
CC(=O)c1cccc(NC(=O)c2c(F)c(F)c(F)c(F)c2F)c1	-0.51%
COC(=O)c1ccccc1NC(=O)Cn1cc2c(n1)CCC(C)C2 (centres unmarked)	7.05%
COCCn1nnnc1SCC(=O)c1ccccc1	6.62%
O/N=C1/C2C3C(Br)C4C5CC(C1C53)C24 (centres unmarked)	12.2%
Cc1ccc(C(=O)N[C@H](C(=O)OCC(=O)NC2CCS(=O)(=O)C2)C(C)C)cc1 (some centres unmarked)	19.4%
